Consider five compounds from the supplement of paper PMC4604168 (melanoma cell lines).

Each structure is given as a SMILES string. Some of the results follow. Many values rest on one well or one pass, so single values are uncertain.
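Further: cells treated in 1,536-well plates, then fixed and DAPI-stained, with nuclei counted from automated high-throughput microscope images.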

This assay has as its system WM3526. In words: cell count relative to DMSO control; melanoma cells; higher = more viable cells. The conditions noted are these: library dose: standard library concentration; 72 h.
In the case of `Cn1cnc2c(F)c(Nc3ccc(Br)cc3Cl)c(C(=O)NOCCO)cc21` [selumetinib] + COc1cc2c(Oc3ccc4[nH]c(C)cc4c3F)ncnc2cc1OCCCN1CCCC1 [cediranib] (first compound 0.075 µM, partner dose 2 µM), the cell count amounted to 67.8%.

`COc1cc([C@@H]2c3cc4c(cc3[C@@H](O[C@@H]3O[C@@H]5CO[C@@H](C)O[C@H]5[C@H](O)[C@H]3O)[C@H]3COC(=O)[C@H]23)OCO4)cc(OC)c1O` [etoposide] + CN(C)S(=O)(=O)c1ccc2c(c1)/C(=C/c1cc3c([nH]1)CCCC3)C(=O)N2 [SU6656] (first compound 0.1 µM, partner dose 2 µM) gave a cell count of 76%.

For `COc1cc([C@@H]2c3cc4c(cc3[C@@H](O[C@@H]3O[C@@H]5CO[C@@H](C)O[C@H]5[C@H](O)[C@H]3O)[C@H]3COC(=O)[C@H]23)OCO4)cc(OC)c1O` [etoposide] + CCCS(=O)(=O)Nc1ccc(F)c(C(=O)c2c[nH]c3ncc(Cl)cc23)c1F [PLX4720] (first compound 0.1 µM, partner dose 0.4 µM), the cell count was 67.3%.

The compound `Cn1cnc2c(F)c(Nc3ccc(Br)cc3Cl)c(C(=O)NOCCO)cc21` [selumetinib] + CN(NC(=O)CC(=O)NN(C)C(=S)c1ccccc1)C(=S)c1ccccc1 [STA4783] (first compound 0.075 µM, partner dose 0.03 µM) displayed a cell count of 60.7%.

Take `CCN(CC)CCNC(=O)c1c(C)[nH]c(/C=C2\C(=O)Nc3ccc(F)cc32)c1C` [sunitinib] + O=C(CCCCCCC(=O)Nc1ccccc1)NO [vorinostat] (first compound 2 µM, partner dose 0.4 µM): the cell count was found to be 54.9%.
